According to paper PMC6919601, “Identification of Plasmodium dipeptidyl aminopeptidase allosteric inhibitors by high throughput screening” (PLoS ONE, 2019):
About 230 (0.21%) of roughly 110,000 compounds showed an effect of 50% or more. This is one part of the list.

Target: DPAP1 (Plasmodium falciparum, UniProt Q8IIJ9)
Assay: primary screen, percent inhibition; read by cleavage of a fluorogenic dipeptide substrate; higher = more effect of the substance
Design: species or system P. falciparum D10 trophozoite lysates; single well
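Note: 30 min substrate incubation versus DMSO and 10 µM JCP410 controls.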

Chain of DPAP1 (Q8IIJ9 whole entry, looked up): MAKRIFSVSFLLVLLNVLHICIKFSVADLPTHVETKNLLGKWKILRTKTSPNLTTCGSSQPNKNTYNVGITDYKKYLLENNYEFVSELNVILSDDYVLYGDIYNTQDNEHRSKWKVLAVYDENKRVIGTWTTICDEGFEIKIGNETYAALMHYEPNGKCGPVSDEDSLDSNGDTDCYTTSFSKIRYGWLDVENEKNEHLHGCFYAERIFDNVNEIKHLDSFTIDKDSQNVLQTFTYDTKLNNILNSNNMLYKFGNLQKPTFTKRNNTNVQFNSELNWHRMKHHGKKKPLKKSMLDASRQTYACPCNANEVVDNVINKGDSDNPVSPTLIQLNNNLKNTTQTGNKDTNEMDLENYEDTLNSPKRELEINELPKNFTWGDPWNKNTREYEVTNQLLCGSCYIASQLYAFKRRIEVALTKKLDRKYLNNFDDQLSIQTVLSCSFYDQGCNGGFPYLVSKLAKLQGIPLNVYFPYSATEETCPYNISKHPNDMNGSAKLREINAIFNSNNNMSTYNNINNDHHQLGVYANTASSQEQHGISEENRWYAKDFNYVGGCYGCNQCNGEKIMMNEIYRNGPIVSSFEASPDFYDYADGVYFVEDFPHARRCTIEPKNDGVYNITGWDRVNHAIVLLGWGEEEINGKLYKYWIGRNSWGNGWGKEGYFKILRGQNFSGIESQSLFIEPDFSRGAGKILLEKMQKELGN

Q: For `Cc1ccc(N2CC(C(=O)Nc3cccc(Br)c3)CC2=O)cc1` (centres unmarked), which “% Inhibition @ 10 uM” value is on record?
A: -3.04%

Q: Which “% Inhibition @ 10 uM” value does the source give for `CCNC(=O)c1cc2c(=O)n3cccc(C)c3nc2n(C(C)CC)c1=N` (centres unmarked) here?
A: 5.17%

Q: How did the “% Inhibition @ 10 uM” value turn out when `CCOc1ccc(N2C(=O)CC(N3CCN(c4ccccn4)CC3)C2=O)cc1` (centres unmarked) was run?
A: -6.36%

Q: `Cc1ccccc1-n1nc2c(c1NC(=O)c1cccc(C(F)(F)F)c1)CS(=O)(=O)C2` was tested. Which “% Inhibition @ 10 uM” value did it give?
A: -0.812%

Q: With `O=C(NCC1CCCO1)c1nnc(Cc2ccc(F)cc2)o1` (centres unmarked) as the compound, how does the “% Inhibition @ 10 uM” value read?
A: -3.41%

Q: How did the “% Inhibition @ 10 uM” value turn out when `COc1ccccc1S(=O)(=O)Cc1ccc(C(=O)O)o1` was run?
A: -0.256%

Q: Which “% Inhibition @ 10 uM” value does the source give for `CNC(=O)CCc1nc(-c2ccc(Cl)cc2)no1` here?
A: -1.35%

Q: For `CC(CS(=O)(=O)c1ccccc1)N1CCOCC1` (centres unmarked), which “% Inhibition @ 10 uM” value is on record?
A: -4.06%

Q: Which “% Inhibition @ 10 uM” value does the source give for `O=C(Nc1ccc2c(c1)OCCO2)c1ccc(C(=O)Nc2ccc3c(c2)OCCO3)cc1` here?
A: -2.8%

Q: How did the “% Inhibition @ 10 uM” value turn out when `CCSC1=C(C#N)C(c2cccs2)C(C(=O)Nc2ccccc2OC)=C(C)N1` (centres unmarked) was run?
A: -3.74%

Q: How did the “% Inhibition @ 10 uM” value turn out when `CC(C)(C)NS(=O)(=O)Nc1ccccn1` was run?
A: 7.47%

Q: How did the “% Inhibition @ 10 uM” value turn out when `COc1ccc(C(=O)Nc2ccc(S(=O)(=O)Nc3onc(C)c3C)cc2)cc1OC` was run?
A: -4.43%

Q: How did the “% Inhibition @ 10 uM” value turn out when `COc1cccc(NC(=O)CSc2nc3c(c(=O)n(C)c(=O)n3C)n2Cc2ccccc2F)c1` was run?
A: 3.05%

Q: With `COc1ccccc1N(CC(=O)N1CCc2ccccc2C1)S(=O)(=O)c1ccc(C)cc1` as the compound, how does the “% Inhibition @ 10 uM” value read?
A: -0.173%

Q: For `Cc1ccc(OCC(=O)Nc2ccc(F)cc2)c(Br)c1`, which “% Inhibition @ 10 uM” value is on record?
A: 3.83%

Q: `O=C(c1ccc(-n2ccc3ccccc32)s1)N1CCN(c2ccccn2)CC1` was tested. Which “% Inhibition @ 10 uM” value did it give?
A: -0.127%

Q: Which “% Inhibition @ 10 uM” value does the source give for `O=C1CSC(c2cn(-c3ccccc3)nc2-c2ccc(F)cc2)N1Cc1ccccc1` (centres unmarked) here?
A: 2.26%

Q: For `O=C(NCc1cccs1)c1nn2c(C(F)(F)F)cc(-c3cccs3)nc2c1Cl`, which “% Inhibition @ 10 uM” value is on record?
A: -5.2%

Q: With `CCOc1ccccc1NC(=O)C(C)(C)Oc1ccc(Cl)cc1` as the compound, how does the “% Inhibition @ 10 uM” value read?
A: 5.66%

Q: How did the “% Inhibition @ 10 uM” value turn out when `CC(C)C[C@H](NC(=O)CNC(=O)c1ccccc1Cl)C(=O)NCC#N` was run?
A: -3.48%

Q: `Cc1ccc2c(c1)C(SCC(=O)NCc1cccs1)CC1(CCCC1)O2` (centres unmarked) was tested. Which “% Inhibition @ 10 uM” value did it give?
A: -2.72%

Q: `Cc1cccnc1NC(=O)CCCC(=O)O` was tested. Which “% Inhibition @ 10 uM” value did it give?
A: -2.26%

Q: `CCN(CC)CCNC(=O)Cc1c(C(=O)O)n(CC)c2ccccc12` was tested. Which “% Inhibition @ 10 uM” value did it give?
A: 2.38%

Q: `Clc1ccc(OCCOCCN2CCCC2)c2ccccc12` was tested. Which “% Inhibition @ 10 uM” value did it give?
A: -4.91%

Q: Which “% Inhibition @ 10 uM” value does the source give for `COC(=O)c1ccc(C2C(C(=O)c3ccc(F)cc3)=C(O)C(=O)N2CCCC(=O)O)cc1` (centres unmarked) here?
A: 0.884%

Q: How did the “% Inhibition @ 10 uM” value turn out when `C#CCOC(=O)CCCC(=O)Nc1c(Cl)cc(Cl)cc1Cl` was run?
A: 1.63%

Q: For `COc1cc(CNc2nc3ccccc3n2C)cc(OC)c1O`, which “% Inhibition @ 10 uM” value is on record?
A: -3.52%

Q: With `CCc1ccc(CNC(=O)CN2C(=O)CSc3ncccc32)cc1` as the compound, how does the “% Inhibition @ 10 uM” value read?
A: -7.02%

Q: `CN(C)Cc1c(O)ccc2c(=O)c(Oc3ccc(Br)cc3)c(C(F)(F)F)oc12` was tested. Which “% Inhibition @ 10 uM” value did it give?
A: 2.95%

Q: With `CCC1CCc2nc3sc(C(=O)NCc4ccc(C)cc4)c(N)c3cc2C1` (centres unmarked) as the compound, how does the “% Inhibition @ 10 uM” value read?
A: 0.279%

Q: `N#CC1=C(N)OC2=C(C(=O)CCC2)C1c1ccc(COc2ccccc2Br)o1` (centres unmarked) was tested. Which “% Inhibition @ 10 uM” value did it give?
A: 0.385%

Q: Which “% Inhibition @ 10 uM” value does the source give for `CC(C)(C)c1[nH]nc2c1C(c1c(F)cccc1Cl)C(C#N)=C(N)O2` (centres unmarked) here?
A: 4.52%

Q: Which “% Inhibition @ 10 uM” value does the source give for `CC1CCN(C2=NC(=O)/C(=C\c3ccc(Br)cc3)S2)CC1` here?
A: 2.64%

Q: `COc1ccc(CN2CCN(C(=O)Cn3c(=O)c4cccn4c4cccnc43)CC2)c(OC)c1OC` was tested. Which “% Inhibition @ 10 uM” value did it give?
A: -6.92%

Q: For `N=C(NCCc1c[nH]c2ccccc12)NC(=O)c1ccccc1`, which “% Inhibition @ 10 uM” value is on record?
A: 4.99%

Q: How did the “% Inhibition @ 10 uM” value turn out when `CC1(C)CC(=O)C2=C(C1)N=C1c3ccccc3C(=O)C1C2c1ccc2c(c1)OCO2` (centres unmarked) was run?
A: -0.171%

Q: `NS(=O)(=O)c1ccc(NC(=O)C2CC2(c2ccccc2)c2ccccc2)cc1` (centres unmarked) was tested. Which “% Inhibition @ 10 uM” value did it give?
A: -3.93%

Q: With `CCN1C(=O)C(CC(=O)Nc2cccc(C)c2C)S/C1=N\c1cccc(C(C)=O)c1` (centres unmarked) as the compound, how does the “% Inhibition @ 10 uM” value read?
A: -11.4%

Q: For `CN1CCN(CCCNc2nc3ccccc3c3nc(-c4ccccc4)nn23)CC1`, which “% Inhibition @ 10 uM” value is on record?
A: -6.07%

Q: For `CCCCOc1ccc(C2(C(=O)O)CCCC2)cc1`, which “% Inhibition @ 10 uM” value is on record?
A: -1.46%

Q: `Nc1nncn1C(=O)COc1ccc(Cl)cc1` was tested. Which “% Inhibition @ 10 uM” value did it give?
A: 0.275%

Q: Which “% Inhibition @ 10 uM” value does the source give for `CN1C(=O)C(=Cc2cccn2-c2ccc(S(N)(=O)=O)cc2)C(=O)N(C)C1=O` here?
A: -4.98%

Q: With `CCN1C(=O)c2ccc(S(=O)(=O)c3ccc(C(=O)O)cc3)cc2C1=O` as the compound, how does the “% Inhibition @ 10 uM” value read?
A: 3.27%

Q: For `CC1OC(Nc2ccc(-c3ccc(NC4OC(C)C(O)C(O)C4O)cc3)cc2)C(O)C(O)C1O` (centres unmarked), which “% Inhibition @ 10 uM” value is on record?
A: -5.62%

Q: `COC(=O)c1ccc(C2CC(=O)NC3=C2C(=O)CC(C)(C)C3)cc1` (centres unmarked) was tested. Which “% Inhibition @ 10 uM” value did it give?
A: -7.98%

Q: How did the “% Inhibition @ 10 uM” value turn out when `O=C(CSc1nc(-c2ccco2)cc(C(F)(F)F)n1)NCCc1ccccc1` was run?
A: -6.55%

Q: With `O=C(Nc1c2c(nn1-c1ccc(F)cc1)CS(=O)(=O)C2)C1(c2ccc(Cl)cc2)CCCC1` as the compound, how does the “% Inhibition @ 10 uM” value read?
A: -9.48%

Q: For `Cc1ccc(OCC(=O)Nc2ccccc2Br)c(C)c1`, which “% Inhibition @ 10 uM” value is on record?
A: -0.545%

Q: `CC(C)CCNC(=O)Cn1c(SCc2c(F)cccc2Cl)nc2ccncc21` was tested. Which “% Inhibition @ 10 uM” value did it give?
A: 2.65%

Q: How did the “% Inhibition @ 10 uM” value turn out when `Cc1onc(-c2c(Cl)cccc2Cl)c1C(=O)N1CCCC(C)C1` (centres unmarked) was run?
A: -2.87%
